Experimental data reported in the GPR68 mutational scans of Howard et al. (2025).
Scores whose standard error is large were omitted. The source holds two more conditions with little spread; they are left out. Read del as a deletion of the residues named and ins as an insertion between two positions. For some assays here: The concentration of ogerin is not given here.

B1: GPR68, Q15743 (parent)
chain: MGNITADNSSMSCTIDHTIHQTLAPVVYVTVLVVGFPANCLSLYFGYLQIKARNELGVYLCNLTVADLFYICSLPFWLQYVLQHDNWSHGDLSCQVCGILLYENIYISVGFLCCISVDRYLAVAHPFRFHQFRTLKAAVGVSVVIWAKELLTSIYFLMHEEVIEDENQHRVCFEHYPIQAWQRAINYYRFLVGFLFPICLLLASYQGILRAVRRSHGTQKSRKDQIQRLVLSTVVIFLACFLPYHVLLLVRSVWEASCDFAKGVFNAYHFSLLLTSFNCVADPVLYCFVSETTHRDLARLRGACLAFLTCSRTGRAREAYPLGAPEASGKSGAQGEEPELLTKLHPAFQTPNSPGSGGFPTGRLA

Assays:
[1] = variants of: B1; test: cAMP reporter score (Enrich2 score, wild type = 0); higher = more signal; HEK293T, FACS bins
[2] = variants of: B1; test: surface expression score (Enrich2 score, wild type = 0); higher = more signal; HEK293T, FACS bins

Variant | cAMP reporter score ([1]; pH 5.5) | cAMP reporter score ([1]; pH 6) | cAMP reporter score ([1]; pH 6, modulator: ogerin) | cAMP reporter score ([1]; pH 6.5, modulator: ogerin) | surface expression score [2]
MGNITADNSSMSCTIDHTIHQTLAPVVYVTVLVVGFPANCLSLYFGYLQIKARNELGVYLCNSTVADLFYICSLPFWLQYVLQHDNWSHGDLSCQVCGILLYENIYISVGFLCCISVDRYLAVAHPFRFHQFRTLKAAVGVSVVIWAKELLTSIYFLMHEEVIEDENQHRVCFEHYPIQAWQRAINYYRFLVGFLFPICLLLASYQGILRAVRRSHGTQKSRKDQIQRLVLSTVVIFLACFLPYHVLLLVRSVWEASCDFAKGVFNAYHFSLLLTSFNCVADPVLYCFVSETTHRDLARLRGACLAFLTCSRTGRAREAYPLGAPEASGKSGAQGEEPELLTKLHPAFQTPNSPGSGGFPTGRLA [L63S] | -1.46 | -0.528 | -2.34 | -1.52 | -2.49
MGNITADNSSMSCTIDHTIHQTLAPVVYVTVLVVGFPANCLSLYFGYLQIKARNELGVYLCNTTVADLFYICSLPFWLQYVLQHDNWSHGDLSCQVCGILLYENIYISVGFLCCISVDRYLAVAHPFRFHQFRTLKAAVGVSVVIWAKELLTSIYFLMHEEVIEDENQHRVCFEHYPIQAWQRAINYYRFLVGFLFPICLLLASYQGILRAVRRSHGTQKSRKDQIQRLVLSTVVIFLACFLPYHVLLLVRSVWEASCDFAKGVFNAYHFSLLLTSFNCVADPVLYCFVSETTHRDLARLRGACLAFLTCSRTGRAREAYPLGAPEASGKSGAQGEEPELLTKLHPAFQTPNSPGSGGFPTGRLA [L63T] | -1.19 | -0.991 | -1.18 | -1.53 | -2.07
MGNITADNSSMSCTIDHTIHQTLAPVVYVTVLVVGFPANCLSLYFGYLQIKARNELGVYLCNWTVADLFYICSLPFWLQYVLQHDNWSHGDLSCQVCGILLYENIYISVGFLCCISVDRYLAVAHPFRFHQFRTLKAAVGVSVVIWAKELLTSIYFLMHEEVIEDENQHRVCFEHYPIQAWQRAINYYRFLVGFLFPICLLLASYQGILRAVRRSHGTQKSRKDQIQRLVLSTVVIFLACFLPYHVLLLVRSVWEASCDFAKGVFNAYHFSLLLTSFNCVADPVLYCFVSETTHRDLARLRGACLAFLTCSRTGRAREAYPLGAPEASGKSGAQGEEPELLTKLHPAFQTPNSPGSGGFPTGRLA [L63W] | -1.31 | -1.56 | -2.05 | -1.49 | -2.03
MGNITADNSSMSCTIDHTIHQTLAPVVYVTVLVVGFPANCLSLYFGYLQIKARNELGVYLCNVTVADLFYICSLPFWLQYVLQHDNWSHGDLSCQVCGILLYENIYISVGFLCCISVDRYLAVAHPFRFHQFRTLKAAVGVSVVIWAKELLTSIYFLMHEEVIEDENQHRVCFEHYPIQAWQRAINYYRFLVGFLFPICLLLASYQGILRAVRRSHGTQKSRKDQIQRLVLSTVVIFLACFLPYHVLLLVRSVWEASCDFAKGVFNAYHFSLLLTSFNCVADPVLYCFVSETTHRDLARLRGACLAFLTCSRTGRAREAYPLGAPEASGKSGAQGEEPELLTKLHPAFQTPNSPGSGGFPTGRLA [L63V] | -0.593 | -0.584 | -0.51 | -0.601 | -2.12
